Reference: PMC4336329 (PLoS ONE, 2015)
Among all 310,000 compounds or so, about 2,200 (0.71%) showed an effect of 50% or more. Effects have a minus sign here. The list shows a part of the results.

target: human ether-à-go-go-related gene (hERG) potassium channel (human, UniProt Q12809); experiment: primary screen, population patch clamp on CHO cells stably expressing hERG
Sequence (Q12809 whole entry, looked up): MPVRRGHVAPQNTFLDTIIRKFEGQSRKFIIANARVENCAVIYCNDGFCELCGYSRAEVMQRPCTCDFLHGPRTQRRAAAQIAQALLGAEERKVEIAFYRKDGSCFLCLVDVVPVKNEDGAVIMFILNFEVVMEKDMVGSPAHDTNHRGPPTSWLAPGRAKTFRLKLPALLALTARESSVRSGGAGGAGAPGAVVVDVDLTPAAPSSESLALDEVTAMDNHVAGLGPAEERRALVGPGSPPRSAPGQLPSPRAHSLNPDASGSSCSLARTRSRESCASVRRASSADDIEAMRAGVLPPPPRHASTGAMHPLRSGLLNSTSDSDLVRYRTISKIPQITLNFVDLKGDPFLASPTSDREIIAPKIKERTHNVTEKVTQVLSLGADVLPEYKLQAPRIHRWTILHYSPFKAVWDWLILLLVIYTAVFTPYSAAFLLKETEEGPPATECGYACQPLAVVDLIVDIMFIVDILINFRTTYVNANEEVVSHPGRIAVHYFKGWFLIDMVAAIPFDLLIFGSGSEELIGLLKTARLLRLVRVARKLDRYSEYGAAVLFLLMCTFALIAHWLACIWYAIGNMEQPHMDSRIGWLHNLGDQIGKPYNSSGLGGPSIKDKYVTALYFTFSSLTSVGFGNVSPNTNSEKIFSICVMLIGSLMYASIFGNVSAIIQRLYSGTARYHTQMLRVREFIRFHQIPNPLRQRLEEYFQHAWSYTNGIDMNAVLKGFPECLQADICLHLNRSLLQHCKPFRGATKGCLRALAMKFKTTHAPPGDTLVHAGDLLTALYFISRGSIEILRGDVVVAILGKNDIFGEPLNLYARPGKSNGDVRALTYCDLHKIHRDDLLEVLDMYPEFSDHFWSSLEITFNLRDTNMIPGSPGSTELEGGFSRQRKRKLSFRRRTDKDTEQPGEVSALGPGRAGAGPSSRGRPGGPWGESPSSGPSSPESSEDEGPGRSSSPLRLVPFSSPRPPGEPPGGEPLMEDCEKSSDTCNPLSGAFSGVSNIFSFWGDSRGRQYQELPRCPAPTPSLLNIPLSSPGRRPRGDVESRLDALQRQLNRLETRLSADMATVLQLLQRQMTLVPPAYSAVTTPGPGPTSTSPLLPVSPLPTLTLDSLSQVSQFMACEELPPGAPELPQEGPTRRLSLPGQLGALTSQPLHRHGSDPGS

Structure (SMILES) | hERG current change (%, negative = inhibition) at 1uM [%]
C/C=N\NC(=O)CNC(=O)CNC(=O)c1ccccc1 | 11.6
CC(/C=N/NC(=O)CN1CCN(Cc2ccc(Cl)cc2)CC1)=C\c1ccco1 | -34.4
CC(=O)Nc1ccc(Nc2ccc(S(=O)(=O)C(F)(F)F)cc2[N+](=O)[O-])cc1 | 2.42
COc1ccccc1N1CCN(C(=O)Nc2cccc(Cl)c2)CC1 | 5.72
CCn1c(C)nnc1SCC(=O)Nc1cccc(C(F)(F)F)c1 | 14.5
Cc1cc(C)c(S(=O)(=O)NC(CC(=O)O)c2cccc([N+](=O)[O-])c2)c(C)c1 (centres unmarked) | 11.8
COc1ccccc1N1CCN(/N=C/c2ccc(O)c(O)c2)CC1 | -1.27
CCOC(=O)c1ccc(CSc2nnc(C)n2N)o1 | 9.42
Cc1nn(CCC(N)=O)c2nc(-c3cccs3)cc(C(F)(F)F)c12 | 10.7
CC1(C(=O)NC2CCCCCCC2)CCC(=O)N1Cc1ccco1 (centres unmarked) | 9.51
Fc1ccccc1CNC(=S)Nc1cccc(C(F)(F)F)c1 | 0.631
CCNC(=O)c1sccc1-n1cccc1 | 9.44
CCN(CC)c1ccc(NC(=O)c2[nH]c(C)c(C(C)=O)c2C)c(C)c1 | 6.84
COc1cccc(NC(=O)c2ccncc2)c1 | 14.4
CN(C)c1ccc(NS(=O)(=O)c2cccc(Cl)c2)cc1 | 5.67
O=c1c(-c2ccccc2)c[nH]n1-c1cccc([N+](=O)[O-])c1 | 19.9
O=C(/C=N/O)Nc1ccc(F)cc1 | 0.539
COc1ccccc1C1C([N+](=O)[O-])=CC([N+](=O)[O-])=CN1C (centres unmarked) | 7.2
Cc1ccccc1-n1nc2c(c1NC(=O)c1cc3ccccc3oc1=O)CS(=O)C2 (centres unmarked) | 8.53
O=[N+]([O-])c1ccccc1NC(=S)N/N=C/c1ccc(O)c(O)c1 | 12.2
CN1CCCC(OC(=O)c2cc(Cl)cc(Cl)c2)C1.Cl (centres unmarked) | -14.8
CSCCC(NC(=O)c1ccc(Cl)cc1)C(=O)OCC(=O)N1CCCC1=O (centres unmarked) | 8.02

Structure (SMILES) | hERG current change (%, negative = inhibition) at 1uM [%]
NC(=O)CSc1nnc(-c2ccccc2Br)n1-c1cccc(C(F)(F)F)c1 | 8.84
CCOc1ccc(CCNC(=O)COC(=O)c2cc([N+](=O)[O-])ccc2N2CCOCC2)cc1OCC | -10.2
O=C(c1ccccc1)N1CCN(C(=O)c2cc3ccccc3o2)CC1 | 0.931
CCOC(=O)c1snc(C(=O)NC2CCCCC2)c1N | -2.62
c1ccc(Cc2noc(CN3CCN(C4CCc5ccccc5C4)CC3)n2)cc1 (centres unmarked) | -76.1
Cc1cc(NS(=O)(=O)c2ccc(NC(=O)/C=C/c3c(F)cccc3Cl)cc2)nc(C)n1 | 18.5
Cc1cccc(/C=C/c2onc(C)c2[N+](=O)[O-])n1 | 14.8
c1coc(-c2nnc3sc(C4CCCCC4)nn23)c1 | -5.14
N=c1oc2ccccc2cc1C(=O)Nc1cccc(F)c1 | 18.9
Cc1ccccc1NC(=O)Cc1nc(COC(=O)COc2ccccc2C(C)C)cs1 | 1.34
O=C(OCC1CC(c2ccccc2)=NO1)c1ccc(Br)cc1 (centres unmarked) | 10.1
CC(=O)Nc1sc2c(c1C#N)CCCCC2 | 16.2
Nc1nc(Nc2ccccc2)nc(NCc2ccccc2)c1[N+](=O)[O-] | 7.82
CC(C)c1ccc(NC(=O)CSc2n[nH]c(=O)n2-c2cccnc2)cc1 | 10.6
CN(Cc1ccccc1)C(=O)CSc1n[nH]c(N)n1 | 9.02
COc1ccc(C)cc1COC(=O)c1[nH]c(C)c(C(C)=O)c1C | 8.88
Cc1cnn(-c2cc(N/N=C/c3ccc(F)cc3)ncn2)c1 | 8.04
CCOC(=O)N1CCN(C(=O)CCc2ccccc2)CC1 | 22.2
COc1ccc(C(=O)N/C(=C/c2ccc(Cl)cc2)C(=O)Nc2ccc(C(=O)O)cc2)cc1 | -1.1
COc1ccc(/C=C2\SC(=S)N(CCC(=O)Nc3cccc(O)c3)C2=O)cc1OC | 11.8
CCOc1ccc2[nH]c3c(NCCC(C)C)ncnc3c2c1 | 4.7
Cc1csc(NC(=O)CSc2nnc(NC(=O)COc3ccccc3)s2)n1 | 12.8
